In the RNAGym collection of RNA variant scans (doi:10.1101/gad.245936.114) one finds nonsense suppression data, which are given here for 27 variants.

Variants at the floor of the assay are shown more often than the library holds them. Bounds are passed on as bounds.

The labels stand for the following.
B1: tRNA (parent)
chain: CUCUCGGUAGCCAAGUUGGUUUAAGGCGCAAGACUUUAAUUUAUCACUACGAAAUCUUGAGAUCGGGCGUUCGACUCGCCCCCGGGAGAUUUUUUCCUCGAGCAA

The variants in this data set derive from B1. The data set is described as follows: nonsense suppression (GFP-seq) (ratio to wild type); higher = more function; SUP4oc tRNA, yeast GFP reporter sort-seq. The method in brief:
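Each variant's nonsense suppression (GFPSEQ) is a cell-share-weighted bin median GFP/RFP relative to the unmutated parent tRNA. Yeast with genome-integrated tRNA variants from a ~3% random-mutation library, a galactose-driven GFP ochre reporter and RFP were grown in raffinose/galactose medium with 80 mg/L adenine, then sorted into GFP/RFP bins for Illumina sequencing. Variants needed ≥100 reads and ≥30 cells.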
On to UUCUCGGUAGCCAAGUUGGUUUAAGGCGCAAUAGUUUAAUUUAUCACUACGAAAUCUUGAGAUCGGGCGUUCGACUCGCCCCCGGGAGAUUUUUUCCUCGAGCAA, for which the nonsense suppression is no more than 0.026.
For the variant CUCUCGGUAGCCAAGUUGGUUUAAGGCGCAAGACUUUAAUUUAUCACUACGAAAUCUUGAGAUCGGACGUUCAACUCGCCCCCGGGAGAUUUUUUCCUCGAGCAA, the nonsense suppression is no more than 0.026.
The result for CUCUCGGUAGCCAAGUUGGUUUAAUGCGCAAGAGUUUAAUUUAUCACUACGAAAUCUUGAGAUCGUGCGUUCGACUCGCCCCCGGGAGAUUUUUUCCUCGAGCAA reads no more than 0.026; that for CUCUCGGUAGCCAAGUGGGUUCAAGGCGCAAGACUUUAAUUUAUCACUACGAAAUCUUGAGAUCGGUCGUUCGACGCCCCCCCGGGAGAUUUUUUCCUCGAGCAA, no more than 0.026.
Turning to CUCUCGGUAGCCAAGUUGGUUUAAGGCGCAUGACUUUAAUUUAUCACUACGAAAUCUUGAGAGCAGGCAUUCGAAUCGCCCCCGGGAGAUUUUUUCCUCGAGCAA, the nonsense suppression is no more than 0.026.
Consider CUCUCGGUAGCCAAGUUCGUUUAAGGUACAAGACUUUAAUUUAUCACUACGAAAUCUUGAGAUCGGGUGUUCGACUCGCCCCCGGGACAUUUUUUCCUCGAGCAA, for which the nonsense suppression is no more than 0.026.
Consider CUAUCGGUAACCAAGUUGGUUUAAGGCGCUAGACUUUAAUUUAUCACUACGAAAUCUUGAGAUCGGGCGUUCGACUCGCCCCCGGGAGAUUUUUUCCUCGAGCAA, for which the nonsense suppression was no more than 0.026.
Under CUCUCGGUAGCCAAGUUGGUUUCAGGCGAAAGACUUUAAUUUAUCACUACGAAAUCUUGAGAUCGGGCCUUCGACUCGCCCCCGGGAGAUUUUUUCCUCGAGCAA stands no more than 0.026; under CACUCGGUAGCCAAGUUGGUUUAAGGCGCAAGACUUUAAUUUAUCACUACGAAAUCUUGAGAUCGGGCGUUCGACUCGCCCCCAGGAGAUUUUUUCCUCGAGCAA, no more than 0.026; under CUCUCGGUAUCCAAGUUGGUUUAAGGCGCAAGAGUUUAAUUUAUCACUACGAAAUCUUGAGAUCGGGCGUUCGACUCGCCCCCGGGAGAUUUUUUCCUCGAGCAA, no more than 0.026.
The result for CUCACGGUAGCCAAGUUGGUUUAAGGCGCAAGACUUUAAUUUAUCACUACGAAAUCUUGAGAUCGGGCGUUCGCCUCGCCCCCGGGGGAUUUUUUCCUCGAGCAA reads no more than 0.026; that for CUCUCGGUAGCCAAGUUGGUUUAAGGCGCAAGACUUUAAUUUAUCACUACGAAAUCUUGAGAUCGGGCGUUCGACACGCCCCCAGGAGAUUUUUUCCUCGAGCAA, no more than 0.026.
The result for CUCUCGGUAGCCAAGUUGGUUUAAGGCGCAAGACUUUAAUUUAUCACUACGAAAUCUUGAGACCGGGCGUUCGACUCGCCCAAGGGAGAUUUUUUCCUCGAGCAA reads no more than 0.026.
Turning to CUCUCGGUAGCCAAUUUGGUUUAAGGCGCAAGACUUUAAUUUAUCACUACGAAAUCUUGAGAUCGGGCGUUAGACUCACCCCCGGGAGAUUUUUUCCUCGAGCAA, the nonsense suppression is no more than 0.026.
In the case of CUCUCGGUAGCCCAGUUGGUUUAUGGGGCAAGGCUUUAAUUUAUCACUACGAAAUCUUGAGAUCGGGCGCUCGACUCGCUCCCGGUAUAUUUUUUCCUCGAGCAA, the nonsense suppression is no more than 0.026.
Under CUCUCGGUAGCCAAGUUGGUCUAAGGCGCAAGGCUUUAAUUUAUCACUACGAAAUCGUGAGAUCGGGCGGUCGACUCGCCCCCGGGAGAUUUUUUCCUCGAGCAA stands no more than 0.026; under CUCACGGUAGCCAAGUUGGUUUAAGGCGCAAGACUUUAAUUUAUCACUACGAAAUCUUGAGAACGGGCGUUCGACUAGCCCCCGGGAGAUUUUUUCCUCGAGCAA, no more than 0.026.
The result for CUCUCGGUAGCCAAGUAGGUUUAAAGCGCAAGACUUUAAUUUAUCACUACGAAAUCUUGAGAUCGGGCGUUCGACUCGCCCCCGGGAGAUUUUUUCCUCGAGCAA reads no more than 0.026; that for CUCUCGGUGGCCAAGUUGGUUUAAGGCGCAAGACUUUAAUUUAUCACUACGAAAUCUUGAGAUCGUGCGUUCGACUCGCCCCCGGGAGAUUUUUUCCUCGAGCAA, no more than 0.026; that for CUCUCGGUAGCCAAGUUGGUUUAAGGCACAAGACUUUAAUUUAUCACUACGAAAUCUUGAGAUCGGGCGUUCGACUCGCCCCCGGAAGAUUUUUUCCUCGAGCAA, no more than 0.026.
For the variant CUCUCGGUAGCCAAGUUGGUUUAAGGCGCAAGACUUUAAUUUAUCACUACGAAAUCUUGCGAUCGGGCGUGCGACUCGCCCCCAUGAGAUUUUUUCCUCGAGCAA, the nonsense suppression was no more than 0.026.
Regarding CUAUCGGUAGCGAAGUUGGUUUAAGGCGCAAGACUUUAAUUUAUCACUACGAAAUCUUGAGAUCGGGCGUUCGACUCGCACCCGGGAGAUUUUUUCCUCGAGCAA, the nonsense suppression was no more than 0.026.
With CUCUCGGUAGCCAAGUUGGAUUAAGGCGCAAGACUUUAAUUUAUCACUACGAAAUCUUCAGAUCGGGCGUUCGACUCGCCCCCGGUAGAUUUUUUCCUCGAGCAA, the nonsense suppression is no more than 0.026.
CUCUCGGUAGCCAAGUUGGUUUAAGGGGCAAGACUUUAAUUUAUCACUACGAAAUCUUGAGAUCGGGCGUUCGACUCGCGCCCGGGAGAUUUUUUCCUCGAGCAA: the nonsense suppression is no more than 0.026.
The result for CUCUCGGUAGCCAAGUUGGUUUAAGGCGCAAGCCUUUAAUUUAUCACUACGAAAUCUUGAGAUCGGGCGUUCGACUCGCCCCCGGAAGAUUUUUUCCUCGAGCAA reads no more than 0.026; that for CUCUCGGUAGCUAAGCUGGUUUUAGGCGCAAGACUUUAAUUUAUCACUACGAAAUCUUGAGAUCGGGCGUUCGACUGGCCUCCGGGAGAUUUUUUCCUCGAGCAA, no more than 0.026.
Under CUCUCGGUAGCCAAGUUGGUUUAAGGCGCAAGACUUUAAUUUAUCACUACGAAAUCUUGAGAUCGGGUGUUCGACUCGCCCCGGGGAGAUUUUUUCCUCGAGCAA stands no more than 0.026.
